Data on 84 compounds can be found in ChEMBL document CHEMBL4888484, “Replenishing the malaria drug discovery pipeline: Screening and hit evaluation of the MMV Hit Generation Library 1 (HGL1) against asexual blood stage Plasmodium falciparum ,using a nano luciferase reporter read-out” (2022).

Structures are written as SMILES. Screen size: about 150,000 compounds; about 540 (0.36%) showed an effect of 50% or more. The list shows a part of the results. Where a SMILES comes first, the peptide text is derived from it. [ ]: non-standard residue; d: D form. The star is where a group is joined. Boc = CC(C)(C)OC(=O)*

What is called % Inhibition is the change of the read-out against control, counted positive when it falls.

The assay has as its system Plasmodium falciparum. Put plainly: Primary screen in NF54 nanoGlo assay, in single point, at 2uM, 72h; a lower Z score goes with more inhibition. Type of assay: functional, Erythrocyte. The conditions noted are these: timepoint 72 hour.
Regarding `Cc1cc(C)n(CCn2cnc(-c3ccccc3)c2[C@H]2CCOC2)c(=O)n1`, the “% Inhibition” value was -16% and the Z score was 1.63.
For `Cc1ccc(OCC(=O)N(Cc2ccc(C)o2)c2ccccn2)cc1` the same measures were 8% and -0.92.
On the same counts, the results for `CN1CCC(CNCc2nnn(C(C)(C)C)n2)(N2CCCCC2)CC1` are -5% and 0.69.
Regarding `COCC[C@]1(c2noc(-c3cccnc3)n2)CCCN(S(=O)(=O)c2c(C)noc2C)C1`, the “% Inhibition” value is -3% and the Z score came out at 0.55.
For `Cn1cc(Cc2nc([C@H]3CCOC4(CCCC4)C3)no2)cn1` the same measures were 17% and -2.11.
On the same counts, the results for `OC[C@H](O)c1cc2n(n1)CCN(c1ncc(F)c(N3CCOCC3)n1)C2` are -1% and 0.23.
On the same counts, the results for `O=C(c1ccncc1F)N1CC(CN2C(=O)COC2=O)C1` are 11% and -1.45.
Take `Cc1ccc(CCC(=O)N2CC[S+]([O-])CC2)c(C)c1`: the “% Inhibition” value was -2% and the Z score came out at 0.23.
For `COc1nc(CNC(=O)Cc2ccc(F)cc2F)nc(OC)n1` the same measures were -6% and 0.71.
For `COCCC1(NC(=O)c2nc(C)oc2C)CCC1` the same measures were 5% and -0.64.
On the same counts, the results for `COCCCN(Cc1c(-c2cccc(C)c2)noc1N1CCOCC1)C(C)=O` are -14% and 2.35.
In the case of `O=C1Nc2ccc(Cl)cc2[C@](C#CC2CC2)(C(F)(F)F)O1`, the “% Inhibition” value was -8% and the Z score is 1.08.
On the same counts, the results for `CCN1CCN(C(=O)CCC2CCN(Cc3c(F)cccc3Cl)CC2)CC1` are -15% and 2.21.
`CCc1ccc(C(=O)N2CC3CN(S(=O)(=O)c4cccc(C)c4)CC(C2)O3)cc1`: the “% Inhibition” value was -19% and the Z score worked out at 1.7.
On the same counts, the results for `COc1ccc(-c2noc(-c3cn(Cc4ccc(N)cc4)cn3)n2)cc1OC` are -12% and 2.2.
For `CCN(Cc1nc(C(C)C)no1)C(=O)c1ccc(=O)n(C)c1` the same measures were -2% and 0.48.
On the same counts, the results for `O=C(c1ccc(C(F)(F)F)cc1)[C@H]1CCCN(C(=O)Cn2cncn2)C1` are -10% and 1.85.
On to `Cn1cnnc1CN1CCN(c2ccc(C(F)(F)F)cc2)CC1`, for which the “% Inhibition” value came to 1% and the Z score is -0.06.
For the compound `COc1ccc(Cl)cc1NC(=O)Cn1c(=O)n(Cc2ccccc2Cl)c(=O)c2sccc21`, the “% Inhibition” value stood at 6% and the Z score is on record as -0.84.
On the same counts, the results for `Cc1ccc(C)c(NC(=O)Cn2[nH]c(-c3ccc(F)cc3)cc2=O)c1` are 2% and -0.28.
For `Cc1cnc(C2CCN(Cc3ccccn3)CC2)n1[C@H](C)CO` the same measures were -22% and 1.92.
In the case of `O=C(C[C@H]1CCOC1)N1CC(Oc2ccccc2)C1`, the “% Inhibition” value was determined as 11% and the Z score was -1.51.
On the same counts, the results for `Cc1nn(CCO)c(C)c1CN(C)C[C@H]1COCCO1` are -14% and 2.57.
For `C[C@@H](c1nc2cc(Cl)ccc2[nH]1)N(C)C(=O)c1cn(C)cn1` the same measures were 2% and -0.35.
On the same counts, the results for `Cc1cccnc1CN(Cc1ccccc1)C(=O)[C@@H]1CC[C@H](N)C1` are -5% and 0.66.
Take `CCOC(CN1CC(=O)NC2CCCCC21)OCC` (stereo not drawn): the “% Inhibition” value was -10% and the Z score worked out at 1.97.
On the same counts, the results for `O=C(Nc1nc2c(s1)CN(Cc1ccccc1)CC2)c1cc(Cl)sc1Cl` are 21% and -2.61.
On the same counts, the results for `O=C(CCc1cccc(Cl)c1)N1CC(C(F)F)C1` are -7% and 0.82.
For the compound `O=C(NCC[C@H](O)c1ccccc1)C(F)(F)C1(O)CCC1`, the “% Inhibition” value stood at 9% and the Z score is -0.88.
For `c1ccc(CN2CC3CCC(C2)C3NCc2cc[nH]n2)cc1` (stereo not drawn) the same measures were -7% and 0.85.
For `O=C1NC2(CCCC2)C(=O)N1CCn1ccc(C(F)(F)F)n1` the same measures were -6% and 1.11.
For `O=C(Nc1ccccc1Cl)c1cccc(COc2cc(Cl)ccc2Cl)c1` the same measures were -1% and 0.08.
`CN(C[C@H](O)CN1CCOCC1)C(=O)c1cc2sccc2[nH]1`: the “% Inhibition” value came to 0% and the Z score was -0.06.
In the case of `CC(NC[C@@H](O)Cc1ccccc1)c1cn2ccccc2n1` (stereo partly drawn), the “% Inhibition” value is recorded as 1% and the Z score is -0.17.
Turning to `O=C(Nc1nc2ccccc2s1)[C@@H]1CCCN1C(=O)c1ccco1`, the “% Inhibition” value is -9% and the Z score turned out to be 1.34.
On the same counts, the results for `CC(C)NC(=O)NC(=O)CN1CCCCCC1` are 1% and -0.19.
For the compound `COc1cccc(NC(=O)CNC(=O)c2cn(-c3ccccc3OC)c(=O)c3ccccc23)c1`, the “% Inhibition” value was -6% and the Z score came to 0.7.
On the same counts, the results for `CC(C)c1ccc([C@@H]2CCCCN2)cc1` are -8% and 1.03.
On to `CC1(C)CN(C(=O)Nc2cccc(-n3cn[nH]c3=O)c2)C1(C)C`, for which the “% Inhibition” value came to 1% and the Z score is on record as -0.12.
For `Cn1cc(-c2ccc(F)cc2)cc1C(=O)O` the same measures were 10% and -0.89.
On the same counts, the results for `CCOC(=O)c1cc(OC(=O)c2ccc(F)cc2)n(-c2ccccc2)n1` are -7% and 1.07.
On the same counts, the results for `COC(C)(C)CS(=O)(=O)N1CC[C@]2(C1)CC2(F)F` are -10% and 0.87.
In the case of `CO[C@H]1CCN(CC(=O)NC2CCCCCC2)C1`, the “% Inhibition” value is given as -8% and the Z score amounted to 1.55.
For `COCC1(S(=O)(=O)N[C@@H]2C[C@H]2c2ccc(Cl)c(F)c2)CC1` the same measures were -46% and 5.34.
On the same counts, the results for `C=CCN(CCC#N)c1nc(C)nc2c1cnn2C` are -3% and 0.5.
On to `Cc1cc(C(=O)Nc2ccc(-c3nnnn3C(C)C)c(F)c2)n(C)n1`, for which the “% Inhibition” value was -5% and the Z score is 0.62.
For `CC(C)NC(=O)[C@@H]1CCCN1C(=O)c1cccs1` the same measures were -7% and 1.02.
On the same counts, the results for `O=C(C[C@@H](Cn1cnnn1)c1ccc(Cl)cc1)NCC1CCOCC1` are -1% and 0.12.
On the same counts, the results for `Cc1ccc(N(C)C(=O)Cn2ncn(C)c2=O)nc1` are -7% and 1.07.
On to `CC1CCC2(CC1)OC[C@@H](C(=O)N1CCN(C)CC1)N2C(=O)c1cccc(C(F)(F)F)c1` (stereo partly drawn), for which the “% Inhibition” value was -7% and the Z score was found to be 1.28.
For `Cc1sc(-c2cc(C(F)(F)F)on2)cc1S(=O)(=O)NC[C@H]1CNCCO1` the same measures were 1% and -0.16.
For `O=C1COc2ccc(S(=O)(=O)Nc3nccc(C4CC4)n3)cc2N1` the same measures were 0% and 0.
In the case of `Cc1cc(C)c2nc(NC(=O)c3ccc(S(=O)(=O)N4CCCCCC4)cc3)sc2c1`, the “% Inhibition” value is given as 0% and the Z score worked out at 0.03.
For `Cc1ccc(F)c(CN2CCN[C@H](C(=O)NCc3ccccn3)C2)c1Cl` the same measures were 3% and -0.45.
On the same counts, the results for `O=C(C1CCN(S(=O)(=O)c2cccc3nonc23)CC1)N1CCC(Cc2nncn2Cc2ccccc2)CC1` are -27% and 3.14.
In the case of `Cc1nn(CN2CC(C)OC(C)C2)c(=S)s1` (stereo not drawn), the “% Inhibition” value is listed as -4% and the Z score is on record as 0.65.
On the same counts, the results for `CCOC(=O)C[C@H](N)c1ccc(F)cc1` are -17% and 1.82.
For `CC1CCCC(OCc2cccc(NC(=O)c3c[nH]c(=O)c(Cl)c3)c2)C1` (stereo not drawn), the “% Inhibition” value is reported as -13% and the Z score is 1.33.
For `O=C(c1cc2cc(F)ccc2s1)N1CCC[C@@H]1Cn1nccn1` the same measures were -9% and 1.61.
Consider `Cc1c(Cl)c(C(=O)NC[C@]2(O)CCCC(C)(C)C2)nn1C`, for which the “% Inhibition” value came out at 4% and the Z score is -0.68.
On the same counts, the results for `C#CCNC(=O)C(C#N)C(=O)CC(C)c1ccc(F)cc1` (stereo not drawn) are 14% and -1.66.
For `COc1c(F)cc([C@H]2CC(=O)NCc3nc4c(C)cccn4c32)cc1Cl` the same measures were -16% and 3.3.
On the same counts, the results for `COc1cc2nc(-c3cc4c(c(OC)c3)OCCN(C(C)=O)C4)cc(C)c2cc1OC` are 10% and -1.39.
On to `CC(=O)N(C)[C@@H](C)C1=CCN(CC(=O)Nc2cnccn2)CC1`, for which the “% Inhibition” value was -1% and the Z score is reported as 0.16.
Consider `Cc1cc(O[C@H]2CCN(S(=O)(=O)c3ccccc3)C2)cc(=O)n1C`, for which the “% Inhibition” value is -2% and the Z score amounted to 0.38.
For `N#CCCn1nnnc1-c1ccccn1` the same measures were -14% and 1.18.
For `Cc1ncc(C(=O)NCCc2nnc(N)s2)cn1` the same measures were 2% and -0.28.
On the same counts, the results for `CN1CCN(S(=O)(=O)c2ccc(Cl)s2)C[C@]12CCNC(=O)CC2` are -2% and 0.41.
For `Cc1cccc(N(C)C(=O)Cc2cccs2)n1`, the “% Inhibition” value is listed as -2% and the Z score worked out at 0.49.
For the compound `NC(=O)C1C(=O)N(CCc2ccco2)C23CCOCC2C1c1ccccc1O3` (stereo not drawn), the “% Inhibition” value is given as -9% and the Z score was determined as 1.72.
On the same counts, the results for `Cc1ccc(S(=O)(=O)N2CCC(C(=O)OCC(=O)N3CC(=O)Nc4ccccc43)CC2)cc1` are -2% and 0.3.
On the same counts, the results for `CC(C)(C)c1cc(-c2cc(C(C)(C)C)n(-c3ccccc3)n2)nn1-c1ccccc1` are -1% and 0.08.
For `CCOc1cccc(C(=O)Nc2ccc(N3CCOCC3)c(NC(=O)c3cccc(OCC)c3)c2)c1` the same measures were -7% and 1.39.
Take `O=S(=O)(N[C@H]1[C@H](O)[C@H](O)C[C@@H]1c1cncnc1)c1ccc(Cl)cc1`: the “% Inhibition” value is -11% and the Z score worked out at 1.65.
On to `CC(C)(C)OC(=O)N[C@H](Cc1ccccc1)C(=O)N1CCC[C@@H]1C(=O)O` (Boc-[dF]-[dP]-OH), for which the “% Inhibition” value is -7% and the Z score was 0.85.
On the same counts, the results for `CCN(CC)CCN(CC(O)COCc1ccc2c(c1)OCO2)CC(O)COCc1ccc2c(c1)OCO2` (stereo not drawn) are -14% and 1.5.
On the same counts, the results for `Cc1cnc(N2CCOCC2C)nc1N1CCOCC1C` (stereo not drawn) are -5% and 0.98.
On the same counts, the results for `Nc1nc(-c2ccc3c(c2)OCCO3)n[nH]1` are 5% and -1.04.
For `O=C(CCN1CCOc2ccc(CO)cc2C1)Nc1ccc2c(c1)CCC2`, the “% Inhibition” value came out at 6% and the Z score was -0.97.
For `Cc1cccc(NC(=O)CC(=O)NCCN2CCC[C@H](O)C2)c1C` the same measures were -10% and 1.74.
In the case of `CC(CCc1ccccc1)NC(=O)C(c1cccnc1)C(C)C` (stereo not drawn), the “% Inhibition” value was 30% and the Z score is -3.38.
On the same counts, the results for `O=C(CN1CCN(S(=O)(=O)c2cccc(F)c2)CC1)c1ccco1` are -12% and 2.25.
For `Cc1cccc2c1OC[C@@H](NS(=O)(=O)CC1(C#N)CCCC1)C2` the same measures were -7% and 0.78.
As for `COc1ccc(Br)cc1[C@H]1CC(=O)Nc2c1c(C)nn2-c1nc2ccccc2[nH]1`, the “% Inhibition” value was 5% and the Z score is given as -0.58.
